According to publication PMC10427645, “Extracellular Pgk1 interacts neural membrane protein enolase-2 to improve the neurite outgrowth of motor neurons” (Communications Biology, 2023):
Results are given in words; binding and its absence hold for the method and conditions named. In cells and extracts the contact can be indirect. Some entries that bind do so weakly or less than the wild type. Tags and fused reporters may be left off the sequences shown.

Sequences of proteins named here, by UniProt entry; tags and fusion partners are left off.
UniProt P17183: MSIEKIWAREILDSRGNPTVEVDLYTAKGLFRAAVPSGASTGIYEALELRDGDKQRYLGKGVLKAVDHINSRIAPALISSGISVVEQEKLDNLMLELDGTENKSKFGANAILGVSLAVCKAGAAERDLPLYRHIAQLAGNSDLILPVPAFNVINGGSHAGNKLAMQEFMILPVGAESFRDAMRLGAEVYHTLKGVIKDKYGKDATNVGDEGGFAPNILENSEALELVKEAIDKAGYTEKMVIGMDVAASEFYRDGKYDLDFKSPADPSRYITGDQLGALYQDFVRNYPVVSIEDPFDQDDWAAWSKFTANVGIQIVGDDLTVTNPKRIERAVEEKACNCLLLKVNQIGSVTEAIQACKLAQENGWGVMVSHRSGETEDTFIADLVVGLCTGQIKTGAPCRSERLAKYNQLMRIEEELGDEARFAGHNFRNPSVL

T1: Eno1-Myc (mouse Enolase-1 fused with Myc) (mouse), P17182
T1 chain: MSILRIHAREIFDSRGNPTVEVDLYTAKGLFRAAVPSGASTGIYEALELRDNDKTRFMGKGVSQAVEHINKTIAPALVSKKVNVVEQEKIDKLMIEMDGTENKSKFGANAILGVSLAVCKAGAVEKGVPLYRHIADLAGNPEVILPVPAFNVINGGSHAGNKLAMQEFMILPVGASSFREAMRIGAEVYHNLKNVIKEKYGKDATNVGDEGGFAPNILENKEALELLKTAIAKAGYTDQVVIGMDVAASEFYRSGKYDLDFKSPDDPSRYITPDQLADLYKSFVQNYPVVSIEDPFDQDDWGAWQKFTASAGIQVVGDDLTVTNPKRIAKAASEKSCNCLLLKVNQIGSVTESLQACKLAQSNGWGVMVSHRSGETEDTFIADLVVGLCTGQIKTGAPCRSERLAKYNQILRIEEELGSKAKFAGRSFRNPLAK


Assays:
[1] = target: Eno2-Myc (mouse Enolase-2 fused with Myc) (mouse) (UniProt P17183); experiment: cross-linking + co-IP; cell surface crosslinking-IP: Sf21 cells expressing the Myc-tagged protein incubated 2 h with recombinant Flag-tagged Pgk1 or fragment in the medium, BS3 cross-linking, lysates immunoprecipitated with anti-Flag or anti-Myc beads, western blot with anti-Flag and anti-Myc; only the binder purified
[2] = target: T1, Eno1-Myc (mouse Enolase-1 fused with …); experiment: as above; settings: remark: other sources report otherwise

| Binder | binding [1] | binding [2] |
| --- | --- | --- |
| Pgk1(1–145)-Flag (domain or fragment, UniProt P09411 1-145) MSLSNKLTLDKLDVKGKRVVMRVDFNVPMKNNQITNNQRIKAAVPSIKFCLDNGAKSVVLMSHLGRPDGVPMPDKYSLEPVAAELKSLLGKDVLFLKDCVGPEVENACANPAAGTVILLENLRFHVEEEGKGKDASGNKVKAEPA | no binding |  |
| Pgk1(225–417)-Flag (domain or fragment, UniProt P09411 225-417) NNMLDKVNEMIIGGGMAFTFLKVLNNMEIGTSLYDEEGAKIVKDLMSKAEKNGVKITLPVDFVTADKFDENAKTGQATVASGIPAGWMGLDCGTESSKKYAEAVGRAKQIVWNGPVGVFEWEAFARGTKSLMDEVVKATSRGCITIIGGGDTATCCAKWNTEDKVSHVSTGGGASLELLEGKVLPGVDALSNV | binds |  |
| Pgk1(146–417)-Flag (domain or fragment, UniProt P09411 146-417) KIDAFRASLSKLGDVYVNDAFGTAHRAHSSMVGVNLPQKAGGFLMKKELNYFAKALESPERPFLAILGGAKVADKIQLINNMLDKVNEMIIGGGMAFTFLKVLNNMEIGTSLYDEEGAKIVKDLMSKAEKNGVKITLPVDFVTADKFDENAKTGQATVASGIPAGWMGLDCGTESSKKYAEAVGRAKQIVWNGPVGVFEWEAFARGTKSLMDEVVKATSRGCITIIGGGDTATCCAKWNTEDKVSHVSTGGGASLELLEGKVLPGVDALSNV | binds |  |

Second part, the binder after the results:

| binding [1] | binding [2] | Binder |
| --- | --- | --- |
|  | no binding | recombinant mouse Pgk1 fused with Flag (Pgk1-Flag), P09411 1-417 (protein) MSLSNKLTLDKLDVKGKRVVMRVDFNVPMKNNQITNNQRIKAAVPSIKFCLDNGAKSVVLMSHLGRPDGVPMPDKYSLEPVAAELKSLLGKDVLFLKDCVGPEVENACANPAAGTVILLENLRFHVEEEGKGKDASGNKVKAEPAKIDAFRASLSKLGDVYVNDAFGTAHRAHSSMVGVNLPQKAGGFLMKKELNYFAKALESPERPFLAILGGAKVADKIQLINNMLDKVNEMIIGGGMAFTFLKVLNNMEIGTSLYDEEGAKIVKDLMSKAEKNGVKITLPVDFVTADKFDENAKTGQATVASGIPAGWMGLDCGTESSKKYAEAVGRAKQIVWNGPVGVFEWEAFARGTKSLMDEVVKATSRGCITIIGGGDTATCCAKWNTEDKVSHVSTGGGASLELLEGKVLPGVDALSNV |
| binds |  | Pgk1(325–417)-Flag (domain or fragment, UniProt P09411 325-417) AEAVGRAKQIVWNGPVGVFEWEAFARGTKSLMDEVVKATSRGCITIIGGGDTATCCAKWNTEDKVSHVSTGGGASLELLEGKVLPGVDALSNV |
